Over roughly 110,000 compounds, “z-score” has its median near -0.1; the highest 2% begin near 2. The list shows a part of the results. Calls of active or inactive are those of the source.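 Rule for the calls: active = z-score in the third read window above 3 or below -3; inactive = the rest.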

The test has as its target Metabotropic glutamate receptor 8 (Rattus norvegicus) (UniProt P70579). As to the kind of experiment: mGluR8 Gi/Go-coupled signaling modulation – cell-based, rat, thallium flux, HTS, primary screen (AID 488969). Conditions: HEK293 rat mGluR8, GIRK (G protein-gated inwardly rectifying potassium channel) thallium flux, FluoZin2; at 10 µM; stronger effect = higher value; submaximal glutamate (EC20) added with thallium.
Chain of UniProt P70579 (P70579 whole entry, looked up): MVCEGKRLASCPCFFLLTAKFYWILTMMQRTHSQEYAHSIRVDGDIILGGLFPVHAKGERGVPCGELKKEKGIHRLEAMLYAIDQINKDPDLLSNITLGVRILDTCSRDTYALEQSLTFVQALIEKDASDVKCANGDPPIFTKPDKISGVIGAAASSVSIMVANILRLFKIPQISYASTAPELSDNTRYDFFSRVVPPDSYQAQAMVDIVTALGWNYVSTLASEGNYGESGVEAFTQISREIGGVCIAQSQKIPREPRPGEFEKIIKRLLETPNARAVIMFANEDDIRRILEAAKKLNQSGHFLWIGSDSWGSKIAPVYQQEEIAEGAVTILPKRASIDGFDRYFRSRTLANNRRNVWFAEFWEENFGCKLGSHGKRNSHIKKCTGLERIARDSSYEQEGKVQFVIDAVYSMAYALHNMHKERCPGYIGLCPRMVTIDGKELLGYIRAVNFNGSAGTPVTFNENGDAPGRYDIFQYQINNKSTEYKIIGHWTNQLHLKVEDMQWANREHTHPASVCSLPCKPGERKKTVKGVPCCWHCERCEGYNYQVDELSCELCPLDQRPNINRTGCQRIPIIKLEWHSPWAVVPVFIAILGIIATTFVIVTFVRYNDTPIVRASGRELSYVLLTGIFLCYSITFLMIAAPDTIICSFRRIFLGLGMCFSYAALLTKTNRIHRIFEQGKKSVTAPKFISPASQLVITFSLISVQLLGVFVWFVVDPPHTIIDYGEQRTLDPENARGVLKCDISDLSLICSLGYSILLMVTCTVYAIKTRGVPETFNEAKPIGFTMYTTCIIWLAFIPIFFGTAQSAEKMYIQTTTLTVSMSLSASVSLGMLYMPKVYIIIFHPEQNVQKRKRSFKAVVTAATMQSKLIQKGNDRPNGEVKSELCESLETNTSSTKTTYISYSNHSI
In turn, `CCOC(=O)COc1ccc(N)cc1CC(NC(C)=O)(C(=O)OCC)C(=O)OCC` came in with a z-score of 0.0447.
As for `Cc1noc(C)c1CSc1nc2sc(C)c(C)c2c(=O)n1-c1ccccc1`, the figure is 0.579.
With `O=C(CCN1C(=O)c2ccccc2C1=O)Nc1sc2c(c1C(=O)NCC1CCCO1)CCC2` (stereo unspecified) the figure was -0.294; with `CCCCN(C)CCC(=O)Nc1ccc(C)cc1`, 0.613.
With `Cc1ccccc1NC(=O)CCSc1nnnn1-c1ccccc1` the figure was -0.202; with `CC(C)c1ccc(C2=NN(c3ccccc3)C(=O)CC2)cc1`, -0.202; with `COc1cc(OC)cc(C(=O)NCCNC(=O)c2ccccc2)c1`, 0.114.
Regarding `COc1ccc(NC(=O)CN(c2ccccc2)S(=O)(=O)N(C)C)cc1OC`, the z-score was found to be 0.192.
As for `CCOC(=O)N1CCN(C(=O)CS(=O)(=O)c2cn(Cc3cccc(F)c3)c3ccccc23)CC1`, the figure is 0.0194.
In turn, `CC(C)[C@H](NC(=O)c1ccccc1)C(=O)OCC(=O)Nc1ccc2c(c1)OCCO2` yielded a z-score of -0.764.
`Cc1ccc(-c2cc(C(=O)N/N=C\c3cnn(C)c3C)c3ccccc3n2)cc1C` had a z-score of -0.154.
`Cc1cc(SCC(=O)NCCN2C(=O)CSC2=O)nc2ccccc12`: the z-score was -0.0438.
As for `CC1CC2(CCCCC2)Nc2c1ccc1ccccc21` (stereo unspecified), the z-score is -0.169.
For the compound `Cc1[nH]c2ccccc2c1C(=O)C(=O)NCCc1ccc(S(N)(=O)=O)cc1`, the z-score is -0.303.
In the case of `O=C(/C=C/c1ccc(OC2CSC2)cc1)c1ccccc1`, the z-score turned out to be 0.105.
Compound `CC1COC(c2cccn2Cc2ccccc2Cl)=N1` (stereo unspecified) registered a z-score of -0.306.
Consider `CCOc1ccc2nc(NC(=O)Nc3ccccc3)sc2c1`, for which the z-score came to 0.853.
Regarding `COc1ccc(C(=O)CSc2n[nH]c(N)n2)cc1`, the z-score was -0.205.
`Cc1ccc(C)c(NC(=O)C2C(c3ccccc3)C2(Cl)Cl)c1` (stereo unspecified) came in with a z-score of -0.251.
As to `CCOc1ccc(Br)cc1S(=O)(=O)Nc1cccc(S(=O)(=O)N(C)c2ccccc2)c1`, the z-score was determined as 0.113.
With `O=C(CSc1nc(-c2ccco2)cc(C(F)(F)F)n1)N1CCN(Cc2ccccc2)CC1`, the z-score is -0.179.
Compound `COc1ccc(-c2nnc(-c3ccc(N(C)C)cc3)o2)cc1` displayed a z-score of 0.133.
Turning to `O=C1CC(c2ccccc2)SC(N(c2ccccc2)c2ccccc2)=N1` (stereo unspecified), the z-score was -0.197.
As for `O=C(Nc1nnc(C(F)(F)F)s1)c1ccc(N2C(=O)C3C4C=CC(C4)C3C2=O)cc1` (stereo unspecified), the figure is -0.186.
As for `COc1cc(C2N3CC4(C)CN2CC(C)(C3)C4)ccc1O` (stereo unspecified), the z-score was -0.0528.
The compound `Cc1csc(Sc2ccc([N+](=O)[O-])cc2C(=O)OCC(=O)NC(=O)NC(C)(C)C)n1` yielded a z-score of -0.292.
Take `C=CCOCC(O)CS(=O)(=O)Cc1ccc(Cl)cc1` (stereo unspecified): the z-score turned out to be 0.269.
The compound `CCOC(=O)c1c(C)oc2ccc(OCC(=O)C(C)(C)C)cc12` yielded a z-score of -1.03.
The compound `COc1cccc(N2C(=O)C(CC(=O)Nc3ccc(F)cc3)N(C3CCCCC3)C2=O)c1` (stereo unspecified) had a z-score of -0.212.
With `Cc1nn(C)c(C(=O)N2CCc3ccccc32)c1Br` the figure was -0.207.
For `COc1ccccc1N(C)S(=O)(=O)c1ccc(C(=O)Nc2ccc3nc(C)sc3c2)cc1`, the z-score is -0.263.
With `Fc1ccccc1CSc1ncn[nH]1`, the z-score worked out at 0.409.
`CCCc1nc(SCC(=O)Nc2ccc(S(=O)(=O)N(C)C)cc2)c2ccccc2n1` displayed a z-score of -0.587.
Compound `O=C(CSc1nnc(CNC(=O)c2cccs2)o1)NC1CCCC1` displayed a z-score of 0.182.
`O=C(c1ccccc1)C1CCc2occc2C1=O` (stereo unspecified) displayed a z-score of -0.0301.
Regarding `Cc1ccc2[nH]c3c(c2c1)CCc1cn[nH]c1-3`, the z-score stood at 0.5.
As for `O=C(c1ccc(Br)o1)N(Cc1ccccc1)c1ccccn1`, the figure is 0.118; as for `O=C(NCc1ccc2c(c1)OCO2)c1cccc(N2CCCC2=O)c1`, 0.0899; as for `CN(C)c1ccc(/C=C2\C(=O)N(c3ccc([N+](=O)[O-])cc3)N=C2N2CCOCC2)cc1`, -0.0708.
Consider `N#CCCn1cc(/C=C(\C#N)c2nc3ccccc3s2)c(-c2ccc(F)cc2)n1`, for which the z-score is -0.278.
The compound `COc1ccc(/C=C2/C(=O)N(CC3CCCO3)C(=S)N2C)c(OC)c1` (stereo unspecified) registered a z-score of -0.162.
With `CCC/C(=N/NC(=O)c1csc(C)c1C)c1ccc(Cl)s1` the figure was active: 5.92; with `Cc1ccc(NC(=O)c2noc3c2CC(C(C)(C)C)CC3)cc1` (stereo unspecified), 0.319; with `COc1ccc(NC(=O)CSc2ncnc3c2sc2ccccc23)c(OC)c1`, -0.108.
`CCSc1nnc(Nc2ccc(C)cc2)s1` returned a z-score of 0.627.
`Nc1nnc(-c2cc3ccccc3oc2=O)s1` came in with a z-score of -0.182.
The compound `C=CCNS(=O)(=O)CC12CCC(CC1=O)C2(C)C` (stereo unspecified) gave a z-score of 0.146.
With `COc1ccc(-c2ccc(-c3noc(-c4ccccc4F)n3)c(OC)n2)cc1` the figure was -0.018.
In turn, `Cc1ccc(S(=O)(=O)NCC2CCCO2)cc1[N+](=O)[O-]` (stereo unspecified) showed a z-score of 0.0235.
As for `CCOc1ccc(OCCOCCN2CCc3ccccc3C2)cc1`, the z-score came out at 0.126.
As for `COc1ccc(CN(C(=O)c2oc3ccccc3c2C)C2CCS(=O)(=O)C2)cc1` (stereo unspecified), the figure is -0.764.
Consider `CCCS(=O)(=O)N1CCN(c2ccccn2)CC1`, for which the z-score is -0.275.
The compound `CC/C(=N/NC(=O)CCC(=O)Nc1ccccc1OC)c1ccccc1` came in with a z-score of 0.0762.
`O=C(C1CCCN1S(=O)(=O)c1ccc(Cl)c(Cl)c1)N1CCOCC1` (stereo unspecified) registered a z-score of -0.626.
`COc1ccc(CNc2ccc3c(c2)ncn3-c2ccccc2OC)cc1` showed a z-score of 0.73.
The compound `CCN(CC)C(=O)CSc1nc2ccc(NC(=O)CSc3nccn3C)cc2s1` returned a z-score of -0.187.
`Cc1ccc(-n2c(O)c(C=NC3CCS(=O)(=O)C3)c3ccccc3c2=O)cc1C` (stereo unspecified) yielded a z-score of -0.607.
As to `Cc1ccc(-n2nnc3c(=O)n(CC(=O)NCC4CCCO4)cnc32)cc1` (stereo unspecified), the z-score is -0.0412.
Compound `Cn1c(=O)[nH]c(=O)c2c1nc(N1CCOCC1)n2CC(O)COc1ccc2ccccc2c1` (stereo unspecified) had a z-score of 0.0675.
Compound `CC(C)c1ccc(NC(=O)C(=O)c2cn(CC(=O)N3CCCCC3)c3ccccc23)cc1` had a z-score of 0.0678.
Compound `CCn1nc(CC(=O)Nc2ccc(-n3cnnn3)c(OC)c2)c2ccccc2c1=O` returned a z-score of -0.728.
Compound `CCN(CCO)Cc1csc2cc(C)ccc12` had a z-score of 0.237.
With `COC(=O)Cc1csc(Nc2ccccc2Cl)n1` the figure was 0.0565; with `CN(C)C(=O)c1snnc1-c1ccccc1`, -0.386.
As for `Cc1ccc(N(C(C)C(=O)Nc2ccc3c(c2)OCO3)S(C)(=O)=O)cc1` (stereo unspecified), the z-score was -0.175.
For the compound `O=C(O)CCCC(=O)Nc1ccccc1C(=O)N1CCCC1`, the z-score came out at 0.00246.
Compound `Cn1c(=O)c2c(nc(Br)n2Cc2ccccc2Cl)n(C)c1=O` gave a z-score of -1.51.
Compound `COc1cc(/C=C2/SC(=S)NC2=O)ccc1OS(=O)(=O)c1ccc(C)cc1` showed a z-score of -2.12.
On to `COc1cccc(NS(=O)(=O)c2cc(C)ccc2OC)c1`, for which the z-score is -0.206.
On to `CN(C)/C=N/c1ncc(C(=O)c2ccc(Cl)cc2)s1`, for which the z-score was -0.0806.
In the case of `N/C(=N\OS(=O)(=O)c1ccccc1)c1ccccn1`, the z-score is -0.247.
Consider `CCOc1ccc(C(=O)NC(=S)Nc2ccccc2N2CCOCC2)cc1Br`, for which the z-score was -0.0259.
With `CCCCCCCCOC(=O)CCc1c(C)[nH]c(=S)[nH]c1=O`, the z-score is 0.653.
The compound `COc1ccc(CC(=O)Nc2cccc(C(=O)Nc3ccccc3C(=O)O)c2)cc1OC` gave a z-score of -0.414.
`O=C(COc1ccc(-c2nnc(N3CCCCC3)c3ccccc23)cc1)N1CCCCC1` returned a z-score of -1.43.
For `Cc1cc2c(cc1C)N(C(=O)CSc1nncn1C)C(C)(C)c1ssc(=S)c1-2`, the z-score amounted to 0.234.
Turning to `COc1ccc(N2CCN(C(=O)NC34CC5CC(CC(C5)C3)C4)CC2)cc1`, the z-score is -0.0964.
On to `COc1ccc2cc(-c3cc(C(=O)O)c4ccccc4n3)ccc2c1`, for which the z-score is -0.468.
`CCN(CC)S(=O)(=O)c1cccc(NC(=O)c2ccc(-n3nc(C)cc3C)cc2)c1` showed a z-score of -1.73.
Compound `Cc1nnc(SCC(=O)N2CC(=O)Nc3ccccc32)n1Cc1ccccc1` came in with a z-score of -0.151.
Compound `CCn1cc([N+](=O)[O-])c(C(=O)Nc2nc(-c3ccc(C)c(C)c3)c(C)s2)n1` registered a z-score of -0.159.
Consider `COc1cccc(C(CC(=O)NCC2CCCO2)NS(=O)(=O)c2ccc(C)cc2)c1OC` (stereo unspecified), for which the z-score worked out at 0.165.
`CCOC(=O)N1CCC(NC(=O)CNS(=O)(=O)c2ccc(Br)s2)CC1` registered a z-score of -0.0328.
Turning to `COC(=O)c1sccc1NC(=O)CSc1ccc(Cl)cc1`, the z-score is 0.289.
In the case of `N#Cc1ccc(C(=O)N/N=C/c2cn(CC(=O)O)c3ccccc23)c(F)c1`, the z-score is -0.248.
Turning to `COc1ccc(C)cc1NS(=O)(=O)c1ccc(Br)s1`, the z-score was determined as 0.369.
The compound `CCc1cc(-c2n[nH]c(C)c2Oc2ccc(C(C)C)cc2)c(O)cc1O` displayed a z-score of -0.516.
As for `O=C(C1CCCN(Cc2cccnc2)C1)N1CCCCC1` (stereo unspecified), the z-score was -0.256.
`CCC(=O)Nc1ccc(/C(C)=N\NC(=O)c2ccc(C)s2)cc1` displayed a z-score of -0.483.
For the compound `COC(=O)c1c(C(=O)OC)c(C)n(Cc2ccco2)c1C`, the z-score is -0.275.
As to `Cc1ccc(OCC(=O)NC2CCCC2)c(C)c1`, the z-score is -0.271.
As for `Cc1cc(C)c2c(n1)sc1c(-c3ccccc3)c(C#N)c(N)nc12`, the figure is -0.2.
`Cc1cc(C)c(C#N)c(SCc2[nH]nc3c2C(c2ccccc2)C(C#N)=C(N)O3)n1` (stereo unspecified) returned a z-score of -0.243.
With `CC(C)n1c(CN2CCN(C)CC2)nc2c1c(=O)n(C)c(=O)n2C`, the z-score came to 0.0901.
Consider `CCOc1cccc(C(=O)Nc2cnn(Cc3ccccc3)c2)c1`, for which the z-score was -0.148.
Compound `COc1cc(OC)c(C2N(C)c3ccccc3N2C)cc1OC` returned a z-score of -0.038.
In turn, `O=C(CSCc1ccccc1Cl)NN1C(=O)c2ccccc2C1=O` displayed a z-score of -0.182.
As for `O=C(COc1ncnc2ccc(Br)cc12)NCc1ccc2c(c1)OCO2`, the z-score is -0.00987.
With `Cc1ccc(-c2nn3c(C)nnc3s2)cc1NC(=O)c1ccc(OC(C)C)cc1` the figure was -1.43; with `Cc1cc(NC(=O)CSc2nc(C3CC3)nc3sc4c(c23)CCC(C)C4)no1` (stereo unspecified), 0.482; with `O=C(NCc1cccnc1)c1cnc2n(c1=O)CCS2`, 0.35.
For the compound `CCc1cc(=O)oc2cc(C)cc(O)c12`, the z-score is -0.13.
Compound `Cc1ccc(OCc2nnc(SCC(=O)N3CCOCC3)n2C)cc1` displayed a z-score of 0.382.
As for `COc1ccc(-c2ccnc(SCC(=O)c3ccc(OC)c(OC)c3)n2)cc1`, the figure is -0.302; as for `O=c1cc(-c2cccc3ccccc23)[nH][nH]1`, -0.261.
As for `COc1ccc(C(NC=O)c2cc(OC)c(OC)cc2Br)cc1OC` (stereo unspecified), the figure is 0.382.
Compound `O=C(CCn1c(=O)[nH]c2ccsc2c1=O)Nc1ccc(F)c(F)c1` showed a z-score of -0.063.
`Cc1ccc(-c2nc3ncccn3c2Nc2ccc3c(c2)OCCO3)cc1` returned a z-score of 0.0376.
`Cc1cccc(OC(=O)c2ccc3nccnc3c2)c1`: the z-score was -0.362.
With `Cc1cc(NS(=O)(=O)c2ccc(NC(=S)NC(=O)c3ccc(F)cc3Cl)cc2)no1` the figure was 0.527; with `CCOc1ccc(/C=C/C(=O)Nc2ccc(OC)cc2[N+](=O)[O-])cc1`, 0.211.
